# Source: the supplement of paper PMC3334620
# The full ranking holds about 33,000 sequences; the median of “E-score (-0.5 to 0.5)” is about -0.054, and the highest 2% start at about 0.39. The list shows a part of the results.
# Biological target: Ylr278c (UniProt Q05854)
# Test: PBM E-score (8-mer binding enrichment) (E-score (-0.5 to 0.5)); higher = stronger / more preferred TF binding; most listed sequences are background and not binding sites
# Conditions: protein concentration: 200 nM; construct: GST-DNA-binding domain
# In short: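 The E-score, a modified Wilcoxon-Mann-Whitney statistic, was computed by the Universal PBM Analysis Suite for every ungapped eight-base word pooled with its reverse complement. Scans behind it were normalised with masliner after bound GST-tagged yeast transcription factors were detected with fluorescent anti-GST. The proteins, at about 100-200 nM, had been applied to universal all-10-mer Agilent arrays made double-stranded by primer extension.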
row,Sequence,PBM E-score
1,TCACTTCA,-0.0462
2,GGTGTAGA,-0.0435
3,AGCACCGG,0.334
4,AATAAAAT,-0.0854
5,ATCTCCAC,0.0374
6,GCCTGGCA,-0.295
7,GATTCCCA,0.0255
8,AAGCGTTC,-0.0671
9,AGCATCCT,0.131
10,AGACATCT,-0.19
11,AGACAACA,-0.138
12,TCTCTCAA,0.113
13,ACAAATAT,0.141
14,GGAGCGTA,0.149
15,AAACTAAC,-0.0564
16,ATTAGTCC,0.192
17,AAGACACC,-0.0134
18,ACTCGTTA,0.0135
19,ACATATTA,-0.0665
20,CTGGTAAG,-0.157
21,AGGTTTGA,-0.055
22,AAGAGGAA,-0.155
23,GGCGGTAC,0.0996
24,GATGCGCA,0.0557
25,ATGTGTGG,-0.121

row,Sequence,PBM E-score
1,TCAGCGCA,0.00893
2,ACCGGCGA,0.379
3,CTCTATAA,-0.198
4,ATAAGCAC,-0.00387
5,CATATAGG,-0.0867
6,TACTGACA,-0.0721
7,ACTGTGAT,-0.027
8,AAACTATC,-0.132
9,ACATCATC,-0.0477
10,CTGGGTGC,-0.171
11,GGCCAATA,0.172
12,CGATTCCG,0.396
13,CTCGTAGA,-0.357
14,AGCTTACA,-0.0912
15,TAGCGGCA,0.173
16,GGGAGGAA,0.224
17,AAACCAGC,0.0107
18,GAAGTGGA,-0.0399
19,GGAGTATA,0.309
20,GACCTCCA,0.0669
21,TCCGGCGA,0.437
22,CCGGACAA,0.444
23,AACGCGGC,0.183
24,CGGTCTTC,0.267
25,GTGATCGA,-0.0596

row,Sequence,PBM E-score
1,ATGAATGA,-0.0897
2,GGAAAGCC,0.234
3,CCCATGAG,-0.177
4,GTCCCTTA,-0.136
5,ATTGGCCA,-0.106
6,TGGTGCAA,-0.23
7,GAGAGCTA,0.0123
8,AACGACGA,0.017
9,GAAGATGA,-0.0839
10,ACCGTACA,-0.212
11,GTACGCCA,-0.188
12,CTGACTAC,-0.246
13,ACTAAACG,-0.0591
14,ATTGACCC,-0.0415
15,ACTCAACG,-0.0871
16,ACTTAAGG,-0.105
17,ACGGCGCT,0.0491
18,ATAGGTGG,-0.163
19,GGCTCATA,-0.0683
20,CATTCCGA,0.391
21,CTGATAGC,-0.122
22,GGGGCCCA,-0.0453
23,CAAATCAG,-0.31
24,TACGACGA,-0.164
25,ACCCCAAA,0.033

row,Sequence,PBM E-score
1,CCTAAATA,-0.129
2,AGCACCTC,-0.0125
3,AACAAGGG,-0.101
4,ATATTTCA,-0.0692
5,AAGATCTG,-0.141
6,CTCCCAAA,-0.0387
7,CGCATCAA,0.169
8,AAAATGGT,0.184
9,AAACAAAC,-0.146
10,TGTAGGAA,-0.0987
11,ATGTCCTA,-0.111
12,ACATCCCT,-0.0585
13,AAATACCG,0.317
14,CACGTCCC,-0.155
15,AGGTTGAA,-0.0182
16,AAGAGCTG,-0.239
17,TTATAGAA,-0.231
18,CGCCACAG,-0.0993
19,AGGCCCAA,-0.0551
20,CCGAAATA,0.326
21,CCTGTTTC,-0.15
22,ATTGAAAG,0.0201
23,AGCAGTCA,-0.154
24,AAACCGTG,-0.104
25,ACTTTTGG,0.0425

row,Sequence,PBM E-score
1,TATCCATA,-0.101
2,CCTGCAGC,-0.174
3,CCGTTACA,0.182
4,GCCGCATA,0.23
5,TATCGGGA,0.288
6,AGTTAGTG,-0.12
7,AAATAGAT,0.0146
8,TGCCAACA,-0.166
9,GTGTGTAA,-0.169
10,AGAACCAC,-0.152
11,ACGATCGT,-0.182
12,CCTCTTGA,-0.327
13,GGCCTGTA,-0.0436
14,GTGGGGAA,0.0514
15,AAGGCCAT,0.0563
16,CTGCGCAC,0.108
17,GGTGTTAA,-0.0152
18,GCCGGTCA,0.28
19,GCGAAACA,0.0359
20,ACCATTGC,-0.0654
21,CGAGTTAC,-0.00574
22,CTCAATTC,0.0265
23,CTCACGAG,-0.21
24,AGAGGTTC,0.0871
25,ATCATGCA,-0.315

row,Sequence,PBM E-score
1,GGACGAAC,0.194
2,CCGAATAC,0.362
3,AAATAATG,0.0558
4,GCTAAGCA,-0.0726
5,CGTTGTAA,-0.155
6,ACCCTGGC,-0.139
7,GTAAGATA,0.0391
8,ATATGGTA,-0.134
9,AACGTAGT,-0.182
10,CACATTGA,-0.0599
11,GATCACAA,0.0765
12,ATATACAA,0.00765
13,TATCAAAA,-0.109
14,ACTACATC,-0.0979
15,CTCGTCAC,-0.0383
16,CAACTTTA,-0.126
17,GAAACGGC,0.0334
18,CCAAGCAC,-0.173
19,GCCCGAGA,0.173
20,GCATGGCA,0.0442
21,CACCGCAC,0.0456
22,GCGAAACC,0.169
23,ACGGGTAA,-0.0191
24,CAGCTTGG,-0.129
25,CTAACCTC,-0.0434

row,Sequence,PBM E-score
1,GAGGCCCC,0.0722
2,AGGCCCAT,-0.14
3,AAAGGAAC,-0.0358
4,GCGCCCAA,0.0697
5,TCTATAGA,-0.251
6,CCGAGAGC,0.286
7,ATTAGCAA,-0.0899
8,AAAGGTTA,-0.262
9,ACCGCCGC,0.235
10,ACCGCGTC,0.0891
11,TATCGTAA,-0.0239
12,AAAAGCAG,-0.219
13,GGTGATAC,0.019
14,ATAAGGAC,-0.218
15,CAACGGTA,-0.128
16,ACACGTGC,-0.0663
17,ACGGGAGC,0.0238
18,CACAGCAG,-0.225
19,CCAGATGA,-0.219
20,TAGGTCCA,-0.188
21,TATCTTAA,-0.0995
22,ATTATCAC,-0.0528
